{
  "source": "PubChem BioAssay AID651820",
  "about": "(National Center for Advancing Translational Sciences (NCATS), 2012)",
  "note": "Several values for one entry are separate records, joined by “and”; a condition that tells them apart may be missing. Identical values can stand only once. Screen size: about 340,000 compounds; about 12,000 (3.5%) were called active. The shares of active, inactive and inconclusive entries below differ from those in the screen. The call rests on the fitted dose curve; in most records, active means well fitted inhibition curve with a large enough effect; inconclusive means small, poorly fitted or top-dose-only effect, or another doubt; inactive means no such curve, though single readings can be large or run the other way. A potency beside an inconclusive call is a rough fit, not a confirmed value. Tags describe the fitted curve by direction and shape.",
  "data": [
    {"assay": "qHTS Assay for Inhibitors of Hepatitis C Virus (HCV)", "conditions": "Huh7.5.1 HCVcc-Cre (HCVcc is cell-culture hepatitis C virus) infection, luciferase reporter, 44 h; series mostly up to 41.8 µM", "from_the_text": "Hepatitis C virus (HCV) infects about 200 million people in the world. Many infected people progress to chronic liver disease including cirrhosis with a risk of developing liver cancer. To date, there is no effective vaccine for hepatitis C. Current therapy based on interferon is only effective in about half of the patients and is associated with significant adverse effects. The fraction of people with HCV who can complete a successful treatment is estimated to be no more than 10 percent. Recent development of direct-acting antivirals against HCV, such as protease and polymerase inhibitors, is promising but still requires combination with peginterferon and ribavirin for maximal efficacy. In addition, these agents are associated with high rate of resistance and many have significant side effects. Due to the lack of a culture system for infectious HCV, the search for new HCV drugs has been greatly hampered. […] High-throughput screening (HTS) with an infectious HCV system would cover the complete spectrum of potentially druggable targets in all stages of HCV lifecycle, and would have more biological relevance than other cell-based assays. Moreover, targeting several key processes in the viral life cycle may not only increase antiviral efficacy; more importantly, it may also reduce the capacity of the virus to develop resistance to the compound. The goal of this project is to identify novel HCV inhibitors as new therapies for hepatitis C, using a highly sensitive and specific assay platform which is based on a HCV infectious cell culture system established in the laboratory and adapted for high-throughput HCV drug screen. NIH Chemical Genomics Center [NCGC] NIH Molecular Libraries Probe Centers Network [MLPCN] MLPCN Grant: MH095511 Assay Submitter (PI): Jake Liang, NIDDK\nThe assay will start with plating 1,000 cells/well in 3 µL volume and culture for 4 h. Then 23 nL of compounds from the library collection will be added to each well, followed by adding 2.5 µL of HCVcc-Cre virus (~ 0.5 moi) and further cultured for 44 h before the luciferase assay. A volume of 4.5 µL luciferase substrates will be added to each well and the plates will be incubated at room temperature for 15 min. and then read for 15 sec. for the luciferase activity", "values": [
      {"smiles": "COc1ccc(/C=C2\\NC(=O)C(C=NCc3ccccc3)=C2O)cc1", "Potency": "inactive"},
      {"smiles": "Cn1c(=N)n(CC(=O)c2ccc(F)cc2)c2ccccc21", "Potency": "inconclusive: 7.08 µM [inhibitor, partial curve]"},
      {"smiles": "CC(C)(C)OC(=O)NC1CCN(S(=O)(=O)c2ccc3c(c2)OCCO3)CC1", "Potency": "inconclusive: 10 µM [inhibitor, partial curve]"},
      {"smiles": "Cc1ccc(Cl)cc1N1CCN(C(=O)Cc2cn(C)c3ccccc23)CC1", "Potency": "inconclusive: 25.1 µM [inhibitor, single point]"},
      {"smiles": "Cc1ccc(-c2nc3c(cnn3-c3ccccc3)c(=O)o2)cc1", "Potency": "inactive"},
      {"smiles": "COC(=O)c1ccc(NS(=O)(=O)NC(=O)c2cn(C)c3ccccc23)cc1", "Potency": "inactive"},
      {"smiles": "O=C(CCCCn1c(=O)[nH]c2ccccc2c1=O)N1CCN(c2cccc(C(F)(F)F)c2)CC1", "Potency": "active: 11.2 µM"},
      {"smiles": "COc1ccc2c(c1)C(C)=CC(C)(C)N2C(=O)CSc1nnc(-c2ccc(C)cc2)o1", "Potency": "inconclusive: 31.6 µM [inhibitor, single point] and inconclusive: 25.1 µM [inhibitor, single point]"},
      {"smiles": "O=C1NC(c2ccccc2)=C(c2ccc3ccccc3n2)C(c2ccccc2)N1", "note": "(centres undefined)", "Potency": "inconclusive: 31.6 µM [inhibitor, single point]"},
      {"smiles": "COc1ccc(OC)c(S(=O)(=O)N(C)CC(=O)Nc2cc(Cl)ccc2OC)c1", "Potency": "active: 11.2 µM"},
      {"smiles": "O=C(NC(=S)Nc1ccc(-c2nc3ncccc3o2)cc1)c1ccccc1F", "Potency": "inconclusive: 15.8 µM [inhibitor, single point]"},
      {"smiles": "Cc1cc(O)c(N)c(C)c1Cl", "Potency": "inactive"},
      {"smiles": "O=[N+]([O-])c1ccc(N2CCCC2)c2ccncc12", "Potency": "inconclusive: 14.1 µM [inhibitor, single point]"},
      {"smiles": "O=C(COc1cccc(NC(=O)c2ccccc2)c1)c1ccc(F)cc1", "Potency": "inconclusive: 8.91 µM [inhibitor, partial curve]"},
      {"smiles": "Cc1ccccc1Cn1cnc2c(NS(C)(=O)=O)c(C)c(C)cc21", "Potency": "inconclusive: 31.6 µM [inhibitor, single point]"},
      {"smiles": "CNC(=S)N/N=C/c1ccc(N(C)C)cc1", "Potency": "inactive"},
      {"smiles": "O=c1cc(CN2CCN(S(=O)(=O)c3ccc4ccccc4c3)CC2)nc2sccn12", "Potency": "inactive"},
      {"smiles": "NC(=O)COC(=O)c1cc(=O)[nH]c2ccccc12", "Potency": "active: 10 µM"},
      {"smiles": "Cc1ccc(S(=O)(=O)N2CCN(C)CC2)c(C)c1", "Potency": "inactive"},
      {"smiles": "Cc1ccc(CN(CC(=O)N/N=C/c2ccccc2[N+](=O)[O-])S(=O)(=O)c2ccc(C)cc2)cc1", "Potency": "inconclusive: 11.2 µM [inhibitor, single point]"},
      {"smiles": "Cc1cc(C)c(S(=O)(=O)N2CCN(c3ccc([N+](=O)[O-])c(NCC4CCCO4)c3)CC2)c(C)c1", "note": "(centres undefined)", "Potency": "inconclusive: 4.47 µM [inhibitor, full curve, poor fit]"},
      {"smiles": "CCN(CC)CC(=O)Nc1ccc(Oc2ccc(NC(=O)CN(CC)CC)cc2)cc1", "Potency": "inconclusive: 10 µM [inhibitor, partial curve]"},
      {"smiles": "Cc1ccccc1NC(=O)C(=O)NCc1ccccn1", "Potency": "inactive"},
      {"smiles": "CCCCN(CC)C(=O)CSc1nc2n[nH]c(C)c2c(=N)n1-c1cccc(C)c1", "Potency": "active: 11.2 µM"},
      {"smiles": "O=C(CSc1cccc(C(F)(F)F)c1)Nc1cc(S(=O)(=O)N2CCCC2)ccc1Cl", "Potency": "inconclusive: 10 µM [inhibitor, partial curve]"},
      {"smiles": "CSc1cccc(NC(=O)c2nnn(Cc3ccccc3)c2N)c1", "Potency": "inconclusive: 20 µM [inhibitor, partial curve, poor fit]"},
      {"smiles": "CN(CC(=O)NCc1ccc(F)cc1)CC(=O)Nc1ccc(Cl)c(C(F)(F)F)c1", "Potency": "inconclusive: 31.6 µM [inhibitor, single point]"},
      {"smiles": "COC(=O)c1cc(-c2ccc(C)o2)nc2ccccc12", "Potency": "inconclusive: 31.6 µM [inhibitor, single point]"},
      {"smiles": "CC(=O)Nc1sc(C)c(C)c1C(=O)OCC(=O)NCc1ccccc1", "Potency": "inconclusive: 2.82 µM [inhibitor, single point]"},
      {"smiles": "COc1ccc(S(=O)(=O)N2CCc3ccccc32)cc1C(=O)OCc1c(C)noc1C", "Potency": "inconclusive: 31.6 µM [inhibitor, single point]"},
      {"smiles": "CCN1C(=O)[C@H]2[C@@H](c3ccc(-c4cccc(Cl)c4)c(OC)c3)N[C@@](C)(C(=O)OC)[C@H]2C1=O", "Potency": "inactive"},
      {"smiles": "O=C(Nc1ccc(Cl)cc1)Nc1ccccc1C(=O)NCc1ccco1", "Potency": "inconclusive: 11.2 µM [inhibitor, single point]"},
      {"smiles": "COc1ccc(-c2nc(CSCC(=O)NC3CCCc4ccccc43)c(C)o2)cc1", "note": "(centres undefined)", "Potency": "inconclusive: 7.08 µM [inhibitor, partial curve]"},
      {"smiles": "Cc1nn(C)c(C)c1/C=C/C(=O)c1ccccc1", "Potency": "inconclusive: 25.1 µM [inhibitor, single point]"},
      {"smiles": "COC(=O)c1cc(CSc2nc3ccccc3c(=O)n2C)oc1C", "Potency": "inconclusive: 7.94 µM [inhibitor, partial curve]"},
      {"smiles": "COc1ccc(COc2cc(-c3cccc(OC)c3)nc3ccc(NC(C)=O)cc23)cc1", "Potency": "inconclusive: 31.6 µM [inhibitor, single point]"},
      {"smiles": "CCn1c(N2CCN(CC(=O)Nc3cccc(C)c3C)CC2)nc2ccccc21", "Potency": "inconclusive: 25.1 µM [inhibitor, single point]"},
      {"smiles": "Brc1cccc(CNc2nc3ccccc3n2CCN2CCCCC2)c1", "Potency": "inconclusive: 31.6 µM [inhibitor, single point]"},
      {"smiles": "CN(C)S(=O)(=O)c1ccc(-c2csc(N/N=C/c3ccco3)n2)cc1", "Potency": "inconclusive: 11.2 µM [inhibitor, partial curve]"},
      {"smiles": "CSc1ccc(CCNC(=O)c2cccc3c2C(=O)N(C2CCCCC2)C3)cc1", "Potency": "active: 11.2 µM"},
      {"smiles": "Cc1noc(C)c1COC(=O)c1cccc(N(C)C)c1", "Potency": "inconclusive: 7.94 µM [inhibitor, partial curve]"},
      {"smiles": "Cc1ccccc1CCNC(=O)c1cc(C2CC2)nc2c1cnn2C(C)C", "Potency": "inconclusive: 1.26 µM [inhibitor, full curve]"},
      {"smiles": "Cc1ccccc1NC(=O)c1nnn(-c2ccc3c(c2)OCCO3)c1N", "Potency": "active: 10 µM"},
      {"smiles": "CN(C)CC/C=C1\\c2ccccc2COc2ccccc21", "Potency": "inconclusive: 25.1 µM [inhibitor, partial curve]"},
      {"smiles": "CCC(=O)Nc1ccc(Cl)c(NC(=O)c2cccc(OC)c2)c1", "Potency": "inconclusive: 3.16 µM [inhibitor, partial curve]"},
      {"smiles": "CCOC(=O)c1sc2nc(C)nc(N3CCN(S(=O)(=O)c4ccccc4)CC3)c2c1C", "Potency": "inconclusive: 35.5 µM [inhibitor, partial curve, poor fit]"},
      {"smiles": "Cc1sc(N)c(C(=O)c2ccccc2Cl)c1C", "Potency": "inconclusive: 11.2 µM [inhibitor, single point]"},
      {"smiles": "CC1(OC(=O)C2CCCC2)C(=O)C=C2C=C(c3ccsc3)N(C3CC3)C=C2C1=O", "note": "(centres undefined)", "Potency": "inconclusive: 3.55 µM [inhibitor, full curve]"},
      {"smiles": "CN(C)N1C(=O)c2c(Cl)c(Cl)c(Cl)c(Cl)c2C1=O", "Potency": "inactive"},
      {"smiles": "C/C(=N\\Nc1nc2c(s1)CCCC2)c1ccccc1", "Potency": "inconclusive: 31.6 µM [inhibitor, single point]"},
      {"smiles": "O=S(=O)(NC1CCN(Cc2ccccc2)CC1)c1cccc(S(=O)(=O)N2CCOCC2)c1", "Potency": "inconclusive: 31.6 µM [inhibitor, single point] and inconclusive: 11.2 µM [inhibitor, partial curve]"},
      {"smiles": "COc1ccc(OC)c(NC(=O)N2C[C@H]3C[C@@H](C2)c2cccc(=O)n2C3)c1", "Potency": "inactive"},
      {"smiles": "CCSc1nc2ccccc2n1CC(N)=O", "Potency": "inactive"},
      {"smiles": "Cc1ccsc1/C=C/c1n[nH]c(=O)c(C#N)c1C", "Potency": "inactive"},
      {"smiles": "CCOC(=O)c1c(NC(=O)C(F)(OC)C(F)(F)F)sc(C(=O)N2CCCCC2)c1C", "note": "(centres undefined)", "Potency": "inconclusive: 1.12 µM [inhibitor, full curve]"},
      {"smiles": "Cc1ccc2c(c1)C1CN(C)CCC1N2S(=O)(=O)c1ccc(C(C)C)cc1", "note": "(centres undefined)", "Potency": "inconclusive: 25.1 µM [inhibitor, single point]"},
      {"smiles": "CCOc1ccc(N(CC(=O)NC(C)(C)C)C(=O)CCC(=O)Nc2nccs2)cc1", "Potency": "inactive"},
      {"smiles": "O=C(Cc1ccccc1)NCC(=O)Nc1ccccc1Br", "Potency": "inactive"},
      {"smiles": "CCCSc1ccc([C@@H]2[C@@H]3C(=O)N(C)C(=O)[C@@H]3[C@]3(C(=O)OC)CCCN23)cc1OC", "Potency": "inconclusive: 31.6 µM [inhibitor, single point]"},
      {"smiles": "CCOc1ccc(-n2c(=O)[nH]cc(C(=O)N3CCc4ccccc43)c2=O)cc1", "Potency": "inactive"},
      {"smiles": "COc1ccc(Cl)cc1C(=O)NNC(=O)c1cccs1", "Potency": "inactive"},
      {"smiles": "Cc1nn(C)cc1C(C)NC(=O)c1cc(COc2c(F)cccc2F)on1", "note": "(centres undefined)", "Potency": "inactive"},
      {"smiles": "COc1ccc(C(=O)Nc2nc3ccc(OC)cc3s2)cc1", "Potency": "inconclusive: 3.55 µM [inhibitor, partial curve]"},
      {"smiles": "CCOC(=O)c1c(C)[nH]c(N=Nc2cccc(OC)c2)c1C", "Potency": "inconclusive: 10 µM [inhibitor, single point]"},
      {"smiles": "CC(C)C[C@H](NC(=O)c1nc[nH]c1C(=O)N1CCN(C(=O)OC(C)(C)C)CC1)C(=O)OC(C)(C)C", "Potency": "inconclusive: 1.12 µM [inhibitor, full curve]"},
      {"smiles": "CCN1CCCC1CNCc1ccc(Cl)cc1Cl", "note": "(centres undefined)", "Potency": "inconclusive: 31.6 µM [inhibitor, single point]"},
      {"smiles": "C=CCNc1nc(-c2c(C)nc3sccn23)cs1", "Potency": "inconclusive: 14.1 µM [inhibitor, partial curve]"},
      {"smiles": "Cc1[nH]nc(-c2ccc(OCc3cnn(-c4ccccc4)c3)c(C)c2O)c1Oc1ccccc1", "Potency": "inactive"},
      {"smiles": "C[C@]12c3[nH]c4cc(-c5ccco5)ccc4c3CCN1C(=O)[C@@H](CC(=O)NCc1cccc(C(F)(F)F)c1)C[C@@H]2C(=O)N1CCOCC1", "Potency": "inconclusive: 31.6 µM [inhibitor, single point]"}
    ]}
  ]
}
